The values that follow are results of earlier work, collected in PMC10609526.

In the series the target is NapA Tat signal peptide (Escherichia coli) (UniProt P33937). The experiment in a line: ITC. Particulars: pH 7.5.

Entries with a single value are a further part of the results.

Chain of UniProt P33937 (P33937 1-36): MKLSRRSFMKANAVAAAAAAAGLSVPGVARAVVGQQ
Chain of NapD (P0A9I5 whole entry): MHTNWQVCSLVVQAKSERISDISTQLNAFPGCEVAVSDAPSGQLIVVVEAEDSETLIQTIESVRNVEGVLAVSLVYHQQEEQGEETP

Take NapD (from UniProt P0A9I5): the dissociation constant (Kd) runs as follows: (major NapD population) 140 nM; (minor NapD population) 3 nM.

The term Kd denotes the equilibrium constant for the complex coming apart.
